Among all 52,000 compounds or so, about 1,700 (3.3%) were called active. Rule as the data show it: active = survival mostly below about 52% (no sharp cut-off); inactive = mostly above about 56%. The list shows a part of the results.

The assay deals with Wild type. The assay can be described thus: growth inhibition of S. aureus wild type versus tarO mutant, primary screen, teichoic acid synthesis inhibitors, RN4220, OD600 (AID 463173). The following applies: S. aureus RN4220 wild type/DeltatarO growth, OD600, 18 h, stronger effect = lower value, screened at 18.75 µg/mL (by protocol).
As to `COc1ccc(CNC(=O)CS(=O)Cc2nc(-c3cccc(C)c3)oc2C)cc1` (stereo not given), the survival was inactive: 84%.

As for `Fc1ccccc1N1CCN(c2nccn3nc(-c4ccc(Br)cc4)cc23)CC1`, the survival is inactive: 69%.

Turning to `CCCCN(CC)CCNC(=O)c1cc2c(=O)n(CC)c3ccccc3c2s1`, the survival was inactive: 67%.

As for `CCCCNc1nc2ccccc2c2nc(-c3ccccc3)nn12`, the survival was active: -1%.

As to `CC(CN1CCCCC1)OC(=O)c1ccc2c(c1)OCO2` (stereo not given), the survival was inactive: 104%.

As to `O=C1C2C(C(=O)N1C13CC4CC(CC(C4)C1)C3)C1C=CC2C12CC2` (stereo not given), the survival is inactive: 114%.

With `Cc1nc(SCCOc2ccccc2F)[nH]c(=O)c1Cc1ccccc1`, the survival was inactive: 86%.

Turning to `Cc1ccccc1NC(=O)c1oc2c(c1C)-c1nn(Cc3cccc(Cl)c3)cc1CC2`, the survival is inactive: 66%.

Turning to `Cc1ccc(-n2c(COCC(=O)O)nc3cccnc32)cc1`, the survival is inactive: 82%.

In the case of `Cc1oc(-c2ccc(Cl)cc2)nc1CN1CCCC(C(=O)NCc2ccccc2)C1` (stereo not given), the survival was inactive: 88%.

Turning to `Cc1ccc(/C=C(\C#N)C(=O)Nc2cccc(Br)c2)o1`, the survival is inactive: 83%.

As to `CCN1CCN(C(c2ccccc2Cl)c2c(O)cc(C)n(CCOC)c2=O)CC1` (stereo not given), the survival was inactive: 113%.

Regarding `CC(C)CNC(=O)c1ccccc1NC(=O)c1ccco1`, the survival is inactive: 112%.

Consider `Cc1ccc(Cl)cc1N1CCN(C(=O)c2cc3c(=O)oc4ccccc4c3s2)CC1`, for which the survival was inactive: 71%.

As to `O=c1[nH]cnc(O)c1Cc1c(O)nc[nH]c1=O`, the survival is inactive: 103%.

As for `Nc1nn(-c2ccccc2)nc1C(=O)OCc1ccccc1`, the survival was inactive: 85%.

`CC1CCCN(CCCNC(=O)Cn2ncc3c([nH]c4ccccc43)c2=O)C1` (stereo not given): the survival is inactive: 87%.

Consider `Cc1ccccc1OCCn1c(CCNC(=O)C2CCCCC2)nc2ccccc21`, for which the survival is inactive: 90%.

Turning to `Cc1nc2ccc(S(=O)(=O)NCC(=O)Nc3ccc(F)cc3F)cc2s1`, the survival is inactive: 128%.

Consider `Cc1ccc(S(=O)(=O)N2CCN(Cc3nc4ccc(C)cc4o3)CC2)c(C)c1`, for which the survival was inactive: 71%.

Turning to `CCOC(=O)Cc1ccc(NC(=O)N(Cc2ccc(CC)cc2)Cc2cn[nH]c2-c2ccc(OC)cc2)cc1`, the survival was inactive: 76%.

As to `COc1cccc(C(=O)Nc2nc(-c3ccc(Br)cc3)ns2)c1`, the survival was inactive: 84%.

On to `CCOC(=O)c1c(C)[nH]c(C)c1S(=O)(=O)N(C)CC(=O)Nc1ccc(C)cc1Br`, for which the survival was inactive: 75%.

For `COCCCNC(=O)CSC1=Nc2ccccc2C2=NC(CCC(=O)NCc3ccc(OC)cc3)C(=O)N12` (stereo not given), the survival is inactive: 73%.

Regarding `CCc1ccc(OCCn2c(C3CC(=O)N(Cc4ccc(F)cc4)C3)nc3ccccc32)cc1` (stereo not given), the survival is active: -14%.

For `CC(C)(C)C(=O)Nc1ccccc1C(=O)OCc1cc(=O)n2ccsc2n1`, the survival is inactive: 53%.

With `CCc1ccccc1-n1nnc(-c2nsc(NC(=O)c3ccc(C)c(C)c3)n2)c1C`, the survival is inactive: 134%.

As for `Cc1ccc(-n2c(SCC(=O)N3CCCc4ccccc43)nc3c([nH]c4ccccc43)c2=O)cc1`, the survival is inactive: 80%.

Regarding `CCc1ccc(C2=CC(c3c(F)cccc3Cl)n3c(nc4ccccc43)N2)cc1` (stereo not given), the survival was inactive: 82%.

Regarding `Cc1cc(C)cc(NC(=O)CSc2nc3nccnc3c(=O)n2CCc2c[nH]c3ccccc23)c1`, the survival was inactive: 80%.

Regarding `Cc1ccc(-c2cn3ccc(C)cc3n2)cc1`, the survival is inactive: 27%.

`CC(C)CCn1c(/C=C/c2ccccc2)nc2ccccc21`: the survival is active: -1%.

`CCOC(=O)Cn1c(=O)n(C2CCCCC2)c2nc(-c3c(F)cccc3Cl)nc(C(N)=O)c21`: the survival was inactive: 80%.

Consider `Cc1cccc(NC(=O)Cn2c(=O)n(CCCCCC(=O)NCc3ccc4c(c3)OCO4)c(=O)c3sccc32)c1`, for which the survival is inactive: 87%.

In the case of `O=C(COC(=O)C1CCC(N2C(=O)C3C4C=CC(C4)C3C2=O)CC1)c1ccc(F)cc1` (stereo not given), the survival was inactive: 108%.

Consider `COC(=O)c1scc(-c2ccc(C)cc2)c1S(=O)(=O)Nc1cc(C)ccc1OC`, for which the survival was inactive: 83%.

Turning to `COc1ccc(Nc2nc(C)nc(N)c2S(=O)(=O)c2ccccc2)cc1`, the survival is inactive: 76%.

As to `O=C(c1ccc2c(c1)N(Cc1ccccc1)C(=O)c1ccccc1S2(=O)=O)N1CCN(Cc2ccccc2)CC1`, the survival was inactive: 89%.

Take `COc1ccccc1C(=O)Nc1sc(Nc2ccccc2)nc1C(N)=O`: the survival is inactive: 146%.

Turning to `Cc1ccc(NC(=O)c2cnc3sc(N4CCOCC4)nn3c2=O)cc1N(C)C`, the survival was inactive: 82%.

In the case of `Cc1ccc(C)c(N2CCN(CCCNC(=O)c3ccc4nc(CCc5ccccc5)oc4c3)CC2)c1`, the survival is inactive: 68%.

Consider `CCCNC(=O)C1CCC(Cn2c(=O)c3sccc3n(CC(=O)NCc3cccc(OC)c3OC)c2=O)CC1` (stereo not given), for which the survival is inactive: 133%.

Consider `CCOc1ccc(N2CC(NC(=O)C3CCCC3)CC2=O)cc1` (stereo not given), for which the survival was inactive: 84%.

As to `COc1ccc(OC)c(NS(=O)(=O)c2ccc(N3CCCCS3(=O)=O)cc2)c1`, the survival was inactive: 75%.

Turning to `Cc1ccc(C(=O)N/C(=C\c2ccc(Cl)cc2)C(=O)NC2CCCCC2)cc1`, the survival was inactive: 100%.

In the case of `COc1cccc(N2CC(NC(=O)c3cc(Cl)ccc3OC)CC2=O)c1` (stereo not given), the survival is inactive: 75%.

As for `N#Cc1c(C(F)(F)F)cc(-c2cccs2)nc1SCC(=O)Nc1cccc(Cl)c1`, the survival is inactive: 69%.

With `COCc1nnc(NC(=O)C2CC(=O)N(c3ccc(C)cc3)C2)s1` (stereo not given), the survival is inactive: 95%.

Consider `CC(=O)c1cccc(NC(=O)CN(c2cc(C)cc(C)c2)S(=O)(=O)c2c(C)noc2C)c1`, for which the survival is inactive: 73%.

Consider `COc1ccc(NC(=O)c2ccco2)cc1NC(=O)c1cc(OC)c(OC)c(OC)c1`, for which the survival was inactive: 94%.

Turning to `Cc1cc(-n2ccnc(NCCc3ccc(S(N)(=O)=O)cc3)c2=O)ccc1Br`, the survival is inactive: 75%.

As for `COc1ccc(-c2onc(C)c2C)cc1S(=O)(=O)N(C)Cc1ccccc1`, the survival was inactive: 129%.

On to `COc1cc(OC)c(N(C)C(=O)c2c(C)oc3ncn(CC(C)C)c(=O)c23)cc1Cl`, for which the survival is inactive: 51%.

For the compound `CCSc1nnc2nc(C)cc(C)n12`, the survival was inactive: 107%.

Consider `Cc1c(-c2ccccc2)nc2c(Cl)cccc2c1C(=O)OCC(=O)c1ccc(F)cc1`, for which the survival is inactive: 92%.

For `CCOC(=O)CSc1nc2cc3c(cc2c(=O)n1Cc1ccc(C(=O)NCCc2ccc(OC)c(OC)c2)cc1)OCO3`, the survival is inactive: 51%.

Turning to `Cc1cc(C)c2c(CC(=O)N(Cc3ccc(Cl)cc3)Cc3ccco3)coc2c1`, the survival was inactive: 93%.

Regarding `O=C(Nc1ccccc1)c1nc[nH]c1C(=O)O`, the survival was inactive: 58%.

Take `CCOc1ccccc1C(=O)N(Cc1sccc1C)C1CCS(=O)(=O)C1` (stereo not given): the survival is inactive: 89%.

Regarding `COc1ccc(-c2cc(C(F)(F)F)nc(SCC(=O)NCCc3ccccc3)n2)cc1`, the survival is inactive: 140%.

As for `Cc1ccc(NC(=O)Cn2cc(S(=O)(=O)Cc3ccc(F)cc3)c3ccccc32)cc1Cl`, the survival was inactive: 77%.

Take `N#Cc1c(-n2ncnc2-c2ccc(F)cc2)sc2c1CCCCC2`: the survival was active: -2%.

For the compound `O=C(C1CCN(S(=O)(=O)c2ccc(Br)s2)CC1)N1CCN(c2cccc(C(F)(F)F)c2)CC1`, the survival is inactive: 93%.

On to `O=C(CSCc1cnn(-c2ccccc2)c1-n1cccc1)NCc1cccc(Cl)c1`, for which the survival was inactive: 91%.

In the case of `CCCSc1ncc(Cl)c(C(=O)Nc2sc3c(c2C(=O)OC)CCCC3)n1`, the survival is inactive: 84%.

Take `CCC(C)NC(=O)CCC(=O)N1Cc2ccccc2Oc2ncccc21` (stereo not given): the survival is inactive: 121%.

Regarding `CC1=C(C(=O)N2CCN(c3ccccc3)CC2)C2(CCCCC2)OC1=O`, the survival is inactive: 82%.

As to `COc1cc(NC(=O)Cn2c(=O)ccc3cc(S(=O)(=O)N4CCCC4)ccc32)cc(OC)c1`, the survival is inactive: 74%.

Regarding `CC(C)(C)NC(=O)c1oc2ccccc2c1NC(=O)c1ccccc1F`, the survival is inactive: 88%.

Turning to `Cc1ccc(S(=O)(=O)Nc2ccc3nc(-c4ccc(F)cc4)oc3c2)cc1`, the survival was inactive: 24%.

For `COc1ccc(/C=C\c2onc(C)c2S(=O)(=O)N2CCC(C(=O)Nc3cccc(OC)c3)CC2)cc1`, the survival was inactive: 121%.

`CCOC(=O)c1c(C)[nH]c(C)c1S(=O)(=O)N(C)CC(=O)Nc1ccc(CC)cc1`: the survival was inactive: 99%.

`Cc1ccc(-n2nc(C)c(C(=O)O)c2-n2cccc2)cc1`: the survival is inactive: 90%.

In the case of `Cc1ccc(CNC(=O)c2c(C)oc3ncnc(N4CCOCC4)c23)cc1`, the survival is active: -1%.

`COc1ccc(CNC(=O)c2cc3ccccn3n2)cc1OC`: the survival was inactive: 127%.

Regarding `CCc1ccc(-n2c(=O)c3c4c(sc3n(CC(=O)c3ccc(Br)cc3)c2=O)CCC4)cc1`, the survival is inactive: 125%.

`O=C(NCc1ccccc1)c1cc2ccc3cccnc3c2[nH]1`: the survival is inactive: 73%.

Regarding `CCCc1nc(SCC(=O)N2CCCC2)c2ccccc2n1`, the survival was inactive: 107%.

Consider `O=C(CCn1nnc(-c2cccs2)n1)NCc1ccccc1Cl`, for which the survival was inactive: 112%.

On to `C=CCNc1nnc(Cl)c2ccccc12`, for which the survival is inactive: 110%.

`Cc1c(C(=O)NCCc2ccccc2)oc2ccccc12`: the survival is inactive: 118%.

`Cc1cccc(C)c1NC(=O)Cn1nnc(C(=O)NCc2ccc(F)cc2)c1N`: the survival was inactive: 78%.

Regarding `Cc1ccccc1CCNC(=O)C1CCN(S(=O)(=O)c2ccc3c(ccn3C)c2)CC1`, the survival is inactive: 63%.

As for `CCOc1ccc(NC(=O)CSc2nnc(C)n2CC2CCCO2)cc1` (stereo not given), the survival is inactive: 106%.

Take `O=C(NCC1(c2ccccc2)CCCC1)C(=O)Nc1cccc(Br)c1`: the survival is inactive: 96%.

As to `Cn1c(=O)c2c(nc(Oc3ccccc3Cl)n2Cc2ccc(C#N)cc2)n(C)c1=O`, the survival is inactive: 81%.

Take `COc1cc(Nc2ncc3c(n2)CCN(Cc2cccc(C)c2)C3)cc(OC)c1`: the survival was inactive: 75%.

With `Cn1nnnc1SCCCNCc1cccc(OCc2ccc(F)cc2)c1`, the survival was inactive: 114%.

Regarding `Cc1cccc(N2CCN(C(=O)C3CCN(c4ncnc5c4nc4n5CCCCC4)CC3)CC2C)c1` (stereo not given), the survival is active: 1%.

As for `CCCN(CCC)C(=O)C(Cc1ccccc1)NS(=O)(=O)c1ccc2c(c1)c(=O)n(C)c(=O)n2C` (stereo not given), the survival was inactive: 82%.

Source of the values: PubChem BioAssay AID463173 (ICCB-Longwood Screening Facility, Harvard Medical School, 2010).
